Experimental data as given in the supplement of paper PMC10670038.
Structures can show the parent of a compound that is named as a salt. ± gives the standard deviation of the averaged measurements. In all, about 2,000 compounds were measured (“relative cell viability vs DMSO, compound alone”: median about 1.1, lowest 2% from about 0.29 on). The list shows a part of the results.

Each compound was assayed on TE10 (assay: relative cell viability vs DMSO, compound alone (fraction); TE10 is an esophageal squamous carcinoma line; higher = less cytotoxic). Conditions: 2 µM; 48 h.
Procedure: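 TE10 ESCC cells (1,000/well, 384-well plates) were treated with Selleck bioactive library compounds at 2 uM alone for 48 h. Viability was read by CellTiter-Glo and expressed relative to DMSO wells. Two technical replicates (A, B).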
CC(NCCc1ccc(O)cc1)C(O)c1ccc(O)cc1 (configuration not stated) [Ritodrine HCl] gave a relative cell viability of 1.1 ± 0.03. With CCC(C)C1OC2(CCC1C)CC1CC(CC=C(C)C(OC3CC(OC)C(OC4CC(OC)C(O)C(C)O4)C(C)O3)C(C)C=CC=C3COC4C(O)C(C)=CC(C(=O)O1)C34O)O2 (configuration not stated) [Ivermectin] the relative cell viability was 1.17 ± 0.087. Compound CC(C)c1cnn2c(NCc3ccccc3)cc(NCCCCCCN)nc12 has a relative cell viability of 1.08 ± 0.063. For O=C(c1ccc(F)c(F)c1Nc1ccc(I)cc1F)N1CC(O)([C@@H]2CCCCN2)C1 [Cobimetinib (GDC-0973, RG7420)], the relative cell viability was 0.8481 ± 0.0073. In the case of O=S(=O)(c1cccc2cnccc12)N1CCCNCC1 [Fasudil (HA-1077) HCl], the relative cell viability is reported as 1.09 ± 0.029. COc1cc2nc(N3CCCN(C)CC3)nc(NC3CCN(Cc4ccccc4)CC3)c2cc1OC showed a relative cell viability of 1.12 ± 0.022. In the case of CCS(=O)(=O)N1CC(CC#N)(n2cc(-c3ncnc4[nH]ccc34)cn2)C1, the relative cell viability is reported as 1.15 ± 0.046. In the case of O=C1NCC2(CCN(CCc3ccccc3)CC2)O1 [Fenspiride HCl], the relative cell viability is reported as 1.05 ± 0.041. Clc1ccc2c(c1)CCc1cccnc1C2=C1CCNCC1 [Desloratadine] was tested, and the relative cell viability was 1.1 ± 0.041. CC(C)c1ccccc1Cc1cc(C(=O)Nc2ccc(S(=O)(=O)c3ccccc3C(C)(C)C)cc2)c(O)c(O)c1O showed a relative cell viability of 0.707 ± 0.087. For O=C(O)CCc1ccc(NCc2cccc(Oc3ccccc3)c2)cc1, the relative cell viability was 0.997 ± 0.012. NC(=O)Nc1cc(-c2cccc(F)c2)sc1C(=O)N[C@H]1CCCNC1 was tested, and the relative cell viability was 0.259 ± 0.021. Compound C[C@H]1[C@H](C)CC[C@]2(C(=O)O)CC[C@]3(C)C(=CC[C@@H]4[C@@]5(C)CC[C@H](O)C(C)(C)[C@@H]5CC[C@]43C)[C@H]12 [Ursolic Acid] has a relative cell viability of 0.991 ± 0.047. Compound C[C@H]1CO[C@@H]2Cn3cc(C(=O)NCc4ccc(F)cc4F)c(=O)c(O)c3C(=O)N12 has a relative cell viability of 1.109 ± 0.0039. Work on Nc1nccc(Oc2ccc(NC(=O)c3c[nH]cc(-c4ccc(F)cc4)c3=O)cc2F)c1Cl yielded a relative cell viability of 1.121 ± 0.0081. COc1c(C)cnc(Cn2cnc3c(Cl)nc(N)nc32)c1C was tested, and the relative cell viability was 0.61 ± 0.039. Work on COc1ccc2c(Oc3ccc(NC(=O)c4c(C)n(CC(C)(C)O)n(-c5ccccc5)c4=O)nc3)ccnc2c1 yielded a relative cell viability of 1.02 ± 0.013. c1ccc2c(CCNc3ccc(Nc4ccncc4)cc3)c[nH]c2c1 showed a relative cell viability of 1.05 ± 0.091. NCCCCCC(=O)O [(6-)ε-Aminocaproic acid] showed a relative cell viability of 1.01 ± 0.02. Compound CC(C)CCNC(=O)[C@H](CC(C)C)NC(=O)[C@H]1O[C@@H]1C(=O)O [Loxistatin Acid (E-64C)] has a relative cell viability of 1.1 ± 0.019. Compound CNCCc1ccccn1 [Betahistine 2HCl] has a relative cell viability of 0.903 ± 0.18. Work on CC(C)Oc1ccc(-c2cnc3c(-c4ccnc5ccccc45)cnn3c2)cc1 yielded a relative cell viability of 1.19 ± 0.027. Cc1csc(-c2nnc(Nc3ccc(Oc4ncccc4-c4ccnc(N)n4)cc3)c3ccccc23)c1 was tested, and the relative cell viability was 0.926 ± 0.039. With Nc1nc2c(ncn2COC(CO)CO)c(=O)[nH]1 [Ganciclovir] the relative cell viability was 1.069 ± 0.0057. With Nc1ccccc1NC(=O)c1cnccn1 the relative cell viability was 1.11 ± 0.037. With C[C@]12C=CC(=O)N[C@@H]1CC[C@@H]1[C@@H]2CC[C@]2(C)[C@@H](C(=O)Nc3cc(C(F)(F)F)ccc3C(F)(F)F)CC[C@@H]12 [Dutasteride] the relative cell viability was 1.22 ± 0.042. With Clc1cccc(Cl)c1NC1=NCCN1 [Clonidine HCl] the relative cell viability was 1.13 ± 0.095. Compound CN(C)S(=O)(=O)c1ccc2c(c1)/C(=C/c1cc3c([nH]1)CCCC3)C(=O)N2 has a relative cell viability of 0.915 ± 0.024. Work on CO[C@H]1/C=C/O[C@@]2(C)Oc3c(C)c(O)c4c(O)c(c5c(nc6cc(C)ccn65)c4c3C2=O)NC(=O)/C(C)=C\C=C\[C@H](C)[C@H](O)[C@@H](C)[C@@H](O)[C@@H](C)[C@H](OC(C)=O)[C@@H]1C [Rifaximin] yielded a relative cell viability of 1.05 ± 0.018. Cc1cnc(Nc2ccc(OCCN3CCCC3)cc2)nc1Nc1cccc(S(=O)(=O)NC(C)(C)C)c1 was tested, and the relative cell viability was 0.906 ± 0.034. For O=C(Cc1ccccc1)Nc1nnc(CCSCCc2nnc(NC(=O)Cc3ccccc3)s2)s1, the relative cell viability was 0.866 ± 0.049. Compound COc1ccc(-c2nc(N3CCOCC3)c3sc(CN(C)c4ncc(C(=O)NO)cn4)cc3n2)cn1 has a relative cell viability of 0.0746 ± 0.0025. COc1cc(-c2ncn(/C=C\C(=O)OC(C)C)n2)cc(C(F)(F)F)c1 was tested, and the relative cell viability was 0.26 ± 0.011. For COc1ccc(Cl)c(Nc2nc3ccccc3nc2NS(=O)(=O)c2cccc(NC(=O)C(C)(C)N)c2)c1 [Pilaralisib (XL147)], the relative cell viability was 1.018 ± 0.0022. CCCNC(=O)NS(=O)(=O)c1ccc(Cl)cc1 [Chlorpropamide] was tested, and the relative cell viability was 1.12 ± 0.056. COc1ccc(Oc2cc(C)c(-c3csc(NC(=O)c4ccncc4)n3)c(C)c2)cc1 was tested, and the relative cell viability was 1.06 ± 0.018. In the case of Cn1c(=O)c2c(ncn2CC2OCCO2)n(C)c1=O [Doxofylline], the relative cell viability is reported as 1.089 ± 0.0094. Cc1ccc([C@@H]2O[C@H](CO)[C@@H](O)[C@H](O)[C@H]2O)cc1Cc1ccc(-c2ccc(F)cc2)s1 [Canagliflozin] showed a relative cell viability of 1.01 ± 0.097. CC(C)(C)c1cc(C(C)(C)C)c(NC(=O)c2c[nH]c3ccccc3c2=O)cc1O [Ivacaftor (VX-770)] gave a relative cell viability of 1.03 ± 0.022. CC(C)NC[C@@H](C(=O)N1CCN(c2ncnc3c2[C@H](C)C[C@H]3O)CC1)c1ccc(Cl)cc1 was tested, and the relative cell viability was 0.74636 ± 0.00027. COc1cccc(C=NCCN=Cc2cccc(OC)c2[O-])c1[O-].[Cl-].[Mn+3] was tested, and the relative cell viability was 1.1 ± 0.05. For COC(=O)Nc1nc2cc(Sc3ccccc3)ccc2[nH]1 [Fenbendazole], the relative cell viability was 0.672 ± 0.03. CCOC(=O)[C@H]1O[C@@H]1C(=O)N[C@@H](CC(C)C)C(=O)NCCC(C)C [Aloxistatin] was tested, and the relative cell viability was 1.09 ± 0.027. Compound C=CC(=O)Nc1cccc(Sc2nc(Nc3ccc(N4CCN(C)CC4)cc3)ncc2Cl)c1 has a relative cell viability of 1.11 ± 0.022. In the case of CCCCNc1ncc(C(=O)NCc2ccc(-n3ccnc3)cc2)c(NC2CCC(O)CC2)n1 (configuration not stated), the relative cell viability is reported as 1.19 ± 0.041. In the case of O=C(Nc1cccnc1)c1cc(-c2ccnc(F)c2)ccc1OCc1ccccc1, the relative cell viability is reported as 1.1 ± 0.088. For O=C1CC[C@@H](C(=O)N2CSC[C@H]2C(=O)O)N1 [Pidotimod], the relative cell viability was 1.02 ± 0.025. In the case of Oc1c(Cl)cc(Cl)c2cccnc12 [Chloroxine], the relative cell viability is reported as 0.9654 ± 0.0059. Work on c1ccc(-c2ccc(C(c3ccccc3)n3ccnc3)cc2)cc1 (configuration not stated) [Bifonazole] yielded a relative cell viability of 1.12 ± 0.038. With CN(C)CCC(c1ccc(Br)cc1)c1ccccn1 (configuration not stated) [Brompheniramine hydrogen maleate] the relative cell viability was 1.15 ± 0.016. In the case of COc1ccc(Cl)cc1NC(=O)Nc1cc(C)nc2ccccc12, the relative cell viability is reported as 1.1 ± 0.057. Work on COc1cc(Nc2c(C#N)cnc3cc(OCCCN4CCN(C)CC4)c(OC)cc23)c(Cl)cc1Cl [Bosutinib (SKI-606)] yielded a relative cell viability of 0.862 ± 0.039.
